Screen size: about 50,000 compounds; about 800 (1.6%) showed an effect of 50% or more. The list shows a part of the results.

This note sets out measurements from PubChem BioAssay AID1240 (Sanford-Burnham Center for Chemical Genomics, 2008).

This experiment concerns the target Bcl-2-like protein 10 (Homo sapiens) (UniProt Q9HD36). The experiment in a line: Phenotype converters, Bcl-B/TR3 peptide binding displacement, primary biochemical FP (AID 1240).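 Further: 0% = Bcl-B with tracer peptide and DMSO and 100% = tracer peptide lacking Bcl-B.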 Conditions: GST-Bcl-B / FITC-TR3 peptide fluorescence polarization; stronger effect = higher value; compound at 3.75 mg/L.
Chain of UniProt Q9HD36 (Q9HD36 whole entry, looked up): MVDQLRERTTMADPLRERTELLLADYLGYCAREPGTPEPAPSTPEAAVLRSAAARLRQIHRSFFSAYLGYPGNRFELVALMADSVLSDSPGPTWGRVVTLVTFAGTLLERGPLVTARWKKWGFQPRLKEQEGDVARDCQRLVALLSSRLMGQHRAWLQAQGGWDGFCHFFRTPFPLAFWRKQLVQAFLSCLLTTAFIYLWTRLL
In the case of `COc1ccc(Cc2c(O)nc(SC)n(-c3ccccc3)c2=O)cc1`, the displacement is -7.8%.
For `O=C1c2ccccc2C(=O)c2c1nc1n2CCOC1` the value was 4%; for `N/C(Cc1cccc2ccccc12)=N\OC(=O)c1ccco1`, 6.6%; for `CCOc1ccc(/C=N\N2CCN(c3ccccc3OC)CC2)cc1`, -15.2%.
The result for `Cc1nn(-c2ccccc2C(=O)O)c(C)c1Oc1ccccc1O` reads -8.1%; that for `CCOC(=O)Cc1csc(NC(=O)/C=C\c2ccccc2Cl)n1`, 5.2%; that for `Clc1cccc(OCCCCN2CCCC2)c1`, 5.2%.
`O=C(NCc1ccco1)c1cc2nc(-c3ccccc3)cc(C(F)(F)F)n2n1`: the displacement came out at 1.6%.
Consider `Nc1nc(-c2ccccc2)cc(N2CCOCC2)n1`, for which the displacement was -10%.
For `Cc1ccc(NN2C(=O)c3cccc4cccc(c34)C2=O)cc1`, the displacement was -11.5%.
For the molecule `COc1ccc2c(c1)c(C1N3CC4(C)CN1CC(C)(C3)C4=O)c(C)n2C` (stereo unspecified), the displacement was 4%.
`O=C(NCC1CC2CC1C1CC21)C1C2C3C4CC5C3C5C4C12` (stereo unspecified): the displacement came out at 3.2%.
For the molecule `COc1ccc(NC(=O)C/C(C)=N/NC(=O)c2cnccn2)cc1`, the displacement is -21.6%.
For the molecule `Cc1cc(C)cc(N2C(=O)NC(=O)/C(=C\c3ccc(Cl)cc3)C2=O)c1`, the displacement came to 16.4%.
With `CCCOC(=O)c1ccc(NC(=O)c2cc(Br)ccc2OC)cc1`, the displacement was -6.7%.
For `Cc1cccc(NC(=O)C2C(c3ccccc3)C=CC(c3ccccc3)C2C(=O)O)c1C` (stereo unspecified), the displacement is -8.1%.
For `CCOc1ccc(N2C(=O)C3C(C(=O)OC)=NN(C(C)=O)C3C2=O)cc1` (stereo unspecified) the value was 21.6%; for `COc1ccc(/C=N/n2cnc3sc4c(c3c2=O)CCCC4)cc1OC`, 5%.
For `C(=NN1CCN(c2ccccn2)CC1)c1ccc(OCc2ccccc2)cc1`, the displacement was -5.9%.
Turning to `COc1ccc(-c2cc(C(=O)Nc3c(C)cccc3C)c3ccccc3n2)c(OC)c1`, the displacement is -2.3%.
For `CN(C)CCN1C(=O)C(=O)/C(=C(/O)c2ccccc2)C1c1ccc(Cl)cc1Cl` (stereo unspecified) the value was 4.9%.
The result for `COc1ccccc1N(CC(=O)NC(C)(C)C)S(=O)(=O)c1ccccc1` reads 47.1%; that for `CCOC(=O)c1c(-c2ccc(OC)cc2)csc1NC(=O)c1cccc([N+](=O)[O-])c1`, 12.6%.
For the molecule `COc1cc(/C=c2\sc3nc4ccccc4n3c2=O)ccc1OC(=O)c1cccs1`, the displacement was determined as 15.4%.
For `CCc1ccccc1N(CC(=O)Nc1cccc(OC)c1)S(C)(=O)=O`, the displacement was determined as 0%.
Take `O=C(Nc1nnc(C23CC4CC(CC(C4)C2)C3)s1)c1ccccc1F`: the displacement was determined as 14%.
Turning to `O=C(c1cccc(OCc2ccccc2)c1)N1CCN(c2ccc([N+](=O)[O-])cc2)CC1`, the displacement was 14.9%.
On to `CCOC(=O)/C=C1\NC2(CCCCC2)Cc2cc(OC)c(OC)cc21`, for which the displacement was -10.3%.
In the case of `CC(=O)NS(=O)(=O)c1ccc(NC(=O)Nc2cccc(Cl)c2)cc1`, the displacement came to 11.1%.
For the molecule `CCCCOc1ccc(S(=O)(=O)N(Cc2ccccc2)Cc2ccccc2)cc1`, the displacement is 0.7%.
In the case of `Cc1ccc(S(=O)(=O)N(CCc2ccccc2)CC(=O)NCc2ccc(Cl)cc2)cc1`, the displacement was 13.8%.
The result for `CSc1nnc2c(n1)OC(c1ccc(C)cc1)Nc1ccccc1-2` (stereo unspecified) reads 12.9%.
With `CCOc1ccccc1OCCCOc1ccccc1OCC`, the displacement was 19.9%.
The result for `C(=Nn1cnnc1)c1ccc2c(c1)OCO2` reads -0.9%; that for `O=C(CCN1C(=O)S/C(=C\c2ccccc2)C1=O)N1CCCCC1`, -9.1%; that for `COc1ccc(S(=O)(=O)Nc2ncccc2Cl)cc1`, -6.8%.
Turning to `COc1cc2ccccc2cc1C(=O)Nc1cccc(-c2nc3ncccc3o2)c1`, the displacement was -0.8%.
Turning to `CN(C)c1ccc(C2C=Cc3ccccc3N2C(=O)c2ccccc2)cc1` (stereo unspecified), the displacement stood at 30.4%.
As to `CC1=CC(C)(C)N(C(=O)c2ccc([N+](=O)[O-])cc2)c2ccccc21`, the displacement is -1.7%.
`COC(=O)C1=C(C)N(c2ccc(OC)cc2)C(=O)/C1=C\c1ccc(O)cc1`: the displacement is 11.4%.
For `COC(=O)c1c(C)oc2cc(Br)c(OCC(=O)C(C)(C)C)cc12`, the displacement worked out at 7.5%.
`COC(=O)c1c(C)oc2ccc(OCc3ccc([N+](=O)[O-])cc3)cc12`: the displacement stood at 11.2%.
In the case of `CN1CCN(/N=C/c2c3ccccc3cc3ccccc23)CC1`, the displacement was -3.8%.
As for `Cc1ccc(NC(=O)COc2ccccc2C)c(Br)c1`, the displacement is -0.9%.
`O=C(c1nn2c(C(F)(F)F)cc(-c3ccc(Br)cc3)nc2c1Cl)N1CCOCC1`: the displacement was 11.9%.
As for `CC1(C)NN(c2ccccc2)C(=S)N1c1ccccc1`, the displacement was found to be 9.6%.
The result for `NS(=O)(=O)c1cccc(NC(=O)c2cccs2)c1` reads 1.4%; that for `Cc1c(NC(=O)c2cccc(OCc3ccccc3)c2)cccc1-c1nc2ccccc2o1`, 23.3%; that for `Cc1ccccc1NC(=O)C(=O)NCCN1CCNCC1`, 12.9%.
The result for `CN1CCN(c2nc(-c3ccc(Cl)cc3)nc3ccccc23)CC1` reads 3.6%; that for `Cc1c(N2C(=O)/C(=C/c3cccs3)SC2=S)c(=O)n(-c2ccccc2)n1C`, 8.6%.
Turning to `CCOC(=O)C1CCN(C(=O)c2cc(C(=O)OC)cc([N+](=O)[O-])c2)CC1`, the displacement amounted to 5.2%.
The result for `Cc1ccc(S(=O)(=O)Nc2c(-c3ccccc3)c3cc(Br)ccc3[nH]c2=O)cc1` reads -18.1%.
As to `O=[N+]([O-])c1ccc2nc(Sc3nc4ccccc4s3)sc2c1`, the displacement came out at 16.3%.
With `COC(=O)C1(S(=O)(=O)c2ccc(Br)cc2)CCCC1`, the displacement was -0.3%.
Take `Cc1ccc(C(=O)Nc2ccc(S(=O)(=O)N3CCc4ccccc43)cc2)cc1`: the displacement was 1.6%.
Regarding `CCOc1ccc(C(=O)Nc2ccc([N+](=O)[O-])cc2OC)cc1Br`, the displacement was -2%.
On to `COc1ccc2nc(NC(=O)COC(=O)C(CCSC)NC(=O)c3ccccc3)sc2c1` (stereo unspecified), for which the displacement stood at 7.7%.
For the molecule `O=C(Nc1ccc(Br)cc1C(=O)O)c1cc([N+](=O)[O-])cc([N+](=O)[O-])c1`, the displacement is 0.8%.
Take `O=C(NCc1ccccn1)c1cccs1`: the displacement is -5.1%.
For the molecule `Cc1cccc(OCCOc2ccc(/C=N/n3cnnc3)cc2)c1`, the displacement is -5.1%.
`O=C(Nc1ccc(O)cc1)c1ccc(-c2ccccc2)cc1`: the displacement was 0.7%.
On to `Cc1nc2ccccn2c1C(=O)NC(C)c1ccccc1` (stereo unspecified), for which the displacement was -0.7%.
As to `CCC(=O)Oc1cc(OC(=O)CC)c2c(C)cc(=O)oc2c1`, the displacement is -15.9%.
As to `CN(C)c1ccc(C2/C(=C(\O)c3ccc(Cl)cc3)C(=O)C(=O)N2c2cccnc2)cc1` (stereo unspecified), the displacement was -40.1%.
Turning to `CCOc1ccccc1NC(=O)c1c(NC(=O)c2cccs2)sc2c1CCCC2`, the displacement was -1.8%.
Regarding `COc1ccc(-c2cc(-c3ccc(C)cc3)nc(N3CCCC3)n2)cc1`, the displacement was -2.2%.
Consider `CC(C)N(Cc1c(O)ccc2c(=O)c(-c3ccc(Cl)cc3)coc12)C(C)C`, for which the displacement was -10.8%.
For the molecule `Cc1ccc(-n2c(O)c(C=NC3CCCCC3)c3ccccc3c2=O)cc1`, the displacement is -2.3%.
With `CC(=O)Nc1ccc(NC(=S)NC(NC(=O)c2cccc([N+](=O)[O-])c2)C(Cl)(Cl)Cl)cc1` (stereo unspecified), the displacement was 7.6%.
On to `NNC(=O)Cn1c(-c2ccccn2)nc2ccccc21`, for which the displacement came to 4.7%.
With `N#C/C(=N\Nc1ccccc1)c1nc(-c2ccc(F)cc2)cs1`, the displacement was 127%.
Consider `O=C1NC(=S)S/C1=C/c1ccc(-c2ccccc2)o1`, for which the displacement is 2.4%.
For the molecule `CCC1(C)CC(CCNCc2ccc(OC)c(OC)c2)(c2ccc(F)cc2)CCO1` (stereo unspecified), the displacement worked out at 3.3%.
Turning to `C/C(=N\NC(=O)C1(C)CC1(Br)Br)c1ccc([N+](=O)[O-])cc1` (stereo unspecified), the displacement is -6.4%.
In the case of `NC(=O)c1c(NC(=O)Nc2ccc(Cl)cc2)sc2c1CCCC2`, the displacement turned out to be 0.8%.
As to `Cc1oc2ccc(OCc3ccc([N+](=O)[O-])cc3)cc2c1C(=O)OC(C)C`, the displacement was found to be 13.2%.
Take `O=C(Nc1cccnc1)c1sc2cc(F)ccc2c1Cl`: the displacement was determined as 7.8%.
The result for `C=CCN1C(=O)/C(=C/c2cc(I)cc(I)c2OC)SC1=S` reads 8.4%.
With `CCCCOc1ccc(C(C)=O)cc1CSc1nc(O)cc(=O)[nH]1`, the displacement was -4.6%.
For `CC(C)OC1=C(Cl)C(=O)c2ccccc2C1=O` the value was 10.6%; for `Cc1ccc(S(=O)(=O)NCc2ccco2)cc1C`, 15%; for `Cc1ccc(NC(=O)C(=O)NC2CC2)c(C)c1`, 2.4%.
For the molecule `COC(=O)C1=C(C)N=c2s/c(=C/c3ccccc3OC(C)=O)c(=O)n2C1c1ccc(OC(C)=O)cc1` (stereo unspecified), the displacement amounted to 6.8%.
The result for `O=C1N=c2ccc(Br)cc2=C1c1sc(=S)n(NC(=O)c2ccccc2[N+](=O)[O-])c1O` reads -2.8%.
For the molecule `COc1ccc(/C=C2\C(=O)NC(=O)N(c3ccc(Cl)cc3)C2=O)cc1C(=O)O`, the displacement was -0.4%.
Take `COc1ccc(C(=O)Nc2cc(C(F)(F)F)ccc2Cl)cc1OC`: the displacement came out at 10.5%.
The result for `Cc1cccc(C2OC3(C(=O)c4ccccc4C3=O)C3C(=O)N(c4ccccc4Br)C(=O)C23)c1` (stereo unspecified) reads 11.4%.
With `CC(C)CC(=O)Nc1ccc(S(N)(=O)=O)cc1`, the displacement was -2.9%.
With `CS(=O)(=O)N(CC(=O)Nc1ccc(Cl)cc1)c1cccc(C(F)(F)F)c1`, the displacement is 8.1%.
Take `Cc1ccc(C(=O)Nc2cccc(NC(=O)c3ccco3)c2)cc1C`: the displacement is 60.4%.
For `COc1cc([N+](=O)[O-])cc2c1N=C(c1ccc(Cl)cc1Cl)NO2`, the displacement amounted to 2%.
Take `CC(C)c1ccc(C2/C(=C(\O)c3ccccc3)C(=O)C(=O)N2CCN(C)C)cc1` (stereo unspecified): the displacement came to 7.2%.
For `O=C1ON=C(c2ccccc2)/C1=C/c1ccc(Br)s1`, the displacement is 70.8%.
For the molecule `CCOc1ccc(N=C2NC(=O)/C(=C/c3ccc(I)o3)S2)cc1`, the displacement was -28.4%.
For `COc1ccc2c(c1)CCC1C2=NN(/C(C)=C/C(C)=O)C1c1ccc(N(C)C)cc1` (stereo unspecified) the value was 1.8%; for `COc1nc(NS(=O)(=O)c2ccc(NC(C)=O)cc2)nc(C)c1Cl`, -7.4%; for `Cc1ccc2nc(NC(=S)NC(=O)c3ccco3)sc2c1`, 11.2%.
For `CCc1c(C)nc2[nH]nc(-c3ccccc3Cl)n2c1=O` the value was -9.1%; for `CCOC(=O)C1=C(C)N=c2s/c(=C\C=C\c3ccccc3)c(=O)n2C1c1ccc(OC(C)=O)cc1` (stereo unspecified), 16.9%.
For `COc1ccccc1/C=C/C(=O)c1c(-c2ccccc2)c2cc(Br)ccc2[nH]c1=O`, the displacement is -20.8%.
`O=C(c1ccc(Br)o1)N1CCN(C(c2ccccc2)c2ccccc2)CC1`: the displacement was 6.9%.
The result for `CN1C2=CC=CC=CC2=[N+](C)C12C=CC(=[N+]([O-])[O-])C=C2[N+](=O)[O-]` (stereo unspecified) reads 14.7%.
On to `Cc1cc(/C=C2\C(=O)NC(=S)N(c3cccc(Cl)c3)C2=O)c(C)n1C`, for which the displacement stood at 9.7%.
As for `Cc1ccc(/C=N/NC(=O)c2ccccc2C)cc1`, the displacement was determined as 7.8%.
For `C=CCN1C(=O)/C(=C\c2ccc(OS(=O)(=O)c3ccccc3)c(OCC)c2)SC1=S`, the displacement is -12.6%.
